Measured values reported in publication PMC4081100.
This is a selection; strong and weak results do not stand in their true shares. For some of these results: At the low end of the ranking the order means little. The list shows a part of the results. For some of these results: Construct or isoform of the protein are uncertain.

Legend:
Assay in all cases: universal protein binding microarray (PBM)
Details in all cases: transcription factors of Arabidopsis thaliana; high values mean tight binding; most listed sequences are background and not binding sites; double strand, one strand shown
GST-NTL6(1-168) = GST-NTL6(1-168) (UniProt Q9SCK6)
GST-ANAC019 NAC domain = target: T1, GST-ANAC019 NAC domain (UniProt Q9C932)
T1 sequence: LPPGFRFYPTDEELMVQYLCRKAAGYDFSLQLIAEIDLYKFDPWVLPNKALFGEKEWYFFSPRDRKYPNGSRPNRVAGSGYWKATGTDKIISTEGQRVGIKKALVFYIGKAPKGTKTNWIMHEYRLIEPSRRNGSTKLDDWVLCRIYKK

GST-NAP(1-166) = target: T2, GST-NAP(1-166) (UniProt O49255)
T2 sequence: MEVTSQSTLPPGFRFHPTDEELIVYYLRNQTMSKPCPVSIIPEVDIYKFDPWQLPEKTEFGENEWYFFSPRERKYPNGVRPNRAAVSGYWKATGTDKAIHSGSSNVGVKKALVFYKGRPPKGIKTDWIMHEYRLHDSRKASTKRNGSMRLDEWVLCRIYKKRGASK

GST-NTL8 NAC domain = target: T3, GST-NTL8 NAC domain (UniProt Q9XIN7)
T3 sequence: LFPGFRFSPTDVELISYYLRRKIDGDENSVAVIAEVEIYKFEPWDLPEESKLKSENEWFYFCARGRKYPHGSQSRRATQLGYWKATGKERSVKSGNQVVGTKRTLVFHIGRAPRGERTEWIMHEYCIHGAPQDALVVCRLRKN

GST-VND3 NAC domain = target: T4, GST-VND3 NAC domain (UniProt Q9FH59)
T4 sequence: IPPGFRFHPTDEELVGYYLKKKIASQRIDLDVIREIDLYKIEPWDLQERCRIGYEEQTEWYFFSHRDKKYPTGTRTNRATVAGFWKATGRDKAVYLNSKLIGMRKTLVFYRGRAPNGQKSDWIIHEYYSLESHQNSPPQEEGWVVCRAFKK

[1] = target: T5, GST-VOZ2 (Arabidopsis thaliana) (UniProt Q9SLB9)
T5 sequence: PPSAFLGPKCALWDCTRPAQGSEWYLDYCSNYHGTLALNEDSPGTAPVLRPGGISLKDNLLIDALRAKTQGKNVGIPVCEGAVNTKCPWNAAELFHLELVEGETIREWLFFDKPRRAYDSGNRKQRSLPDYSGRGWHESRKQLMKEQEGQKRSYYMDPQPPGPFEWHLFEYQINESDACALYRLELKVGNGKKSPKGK

GST-WRKY1(266-371) = GST-WRKY1(266-371) (UniProt Q9SI37)
GST-ANAC055(1-171) = target: T6, GST-ANAC055(1-171) (UniProt Q9LDY8)
T6 sequence: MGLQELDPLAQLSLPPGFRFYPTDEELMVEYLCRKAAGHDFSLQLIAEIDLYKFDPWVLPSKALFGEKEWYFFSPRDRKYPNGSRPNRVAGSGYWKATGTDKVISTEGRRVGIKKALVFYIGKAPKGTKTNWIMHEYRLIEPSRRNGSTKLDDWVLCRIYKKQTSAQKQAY

GST-ATAF1 NAC domain = target: T7, GST-ATAF1 NAC domain (UniProt Q39013)
T7 sequence: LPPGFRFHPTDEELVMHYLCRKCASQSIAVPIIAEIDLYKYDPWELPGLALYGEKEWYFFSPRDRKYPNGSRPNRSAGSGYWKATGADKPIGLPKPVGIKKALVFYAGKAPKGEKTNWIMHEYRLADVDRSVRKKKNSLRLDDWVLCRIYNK

GST-NST2(1-184) = target: T8, GST-NST2(1-184) (UniProt Q9M274)
T8 sequence: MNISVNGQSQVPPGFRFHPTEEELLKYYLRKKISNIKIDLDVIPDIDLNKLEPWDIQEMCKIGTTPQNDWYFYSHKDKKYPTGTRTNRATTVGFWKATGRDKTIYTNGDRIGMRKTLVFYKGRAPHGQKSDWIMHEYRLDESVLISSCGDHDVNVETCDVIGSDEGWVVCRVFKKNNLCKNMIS

[2] = target: T9, GST-ANAC092(1-285) full length (UniProt Q9FKA0)
T9 sequence: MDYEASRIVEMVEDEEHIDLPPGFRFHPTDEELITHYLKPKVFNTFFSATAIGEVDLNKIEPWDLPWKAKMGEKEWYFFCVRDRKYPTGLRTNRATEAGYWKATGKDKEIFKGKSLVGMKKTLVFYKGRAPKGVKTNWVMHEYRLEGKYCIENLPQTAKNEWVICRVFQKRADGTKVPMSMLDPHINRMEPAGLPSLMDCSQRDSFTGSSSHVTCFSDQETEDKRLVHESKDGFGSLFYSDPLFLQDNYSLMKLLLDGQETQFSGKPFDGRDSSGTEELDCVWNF

GST-ANAC092(1-176) = target: T10, GST-ANAC092(1-176) (UniProt Q9FKA0)
T10 sequence: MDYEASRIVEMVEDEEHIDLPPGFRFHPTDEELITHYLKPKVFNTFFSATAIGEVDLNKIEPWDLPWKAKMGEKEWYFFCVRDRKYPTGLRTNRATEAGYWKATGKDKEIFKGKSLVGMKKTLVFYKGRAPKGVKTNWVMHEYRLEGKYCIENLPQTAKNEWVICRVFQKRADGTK

GST-VND7 NAC domain = target: T11, GST-VND7 NAC domain (UniProt Q9C8W9)
T11 sequence: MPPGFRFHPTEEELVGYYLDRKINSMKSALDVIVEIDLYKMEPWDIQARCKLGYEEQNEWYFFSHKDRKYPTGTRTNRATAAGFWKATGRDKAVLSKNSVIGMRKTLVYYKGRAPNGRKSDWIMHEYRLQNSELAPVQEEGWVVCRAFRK

Row | Sequence | binding signal (GST-NTL6(1-168)) [E-score] | binding signal (GST-ANAC019 NAC domain) [E-score] | binding signal (GST-NAP(1-166)) [E-score] | binding signal (GST-NTL8 NAC domain) [E-score] | binding signal (GST-VND3 NAC domain) [E-score] | binding signal [1] [E-score] | binding signal (GST-WRKY1(266-371)) [E-score] | binding signal (GST-ANAC055(1-171)) [E-score] | binding signal (GST-ATAF1 NAC domain) [E-score] | binding signal (GST-NST2(1-184)) [E-score] | binding signal [2] [E-score] | binding signal (GST-ANAC092(1-176)) [E-score] | binding signal (GST-VND7 NAC domain) [E-score]
1 | ACGCCATC | 0.025 | 0.0335 | 0.171 | 0.0371 | 0.125 | 0.0261 | -0.0865 | – | – | – | – | – | –
2 | GAAGGAAA | – | 0.118 | 0 | 0.485 | -0.0803 | -0.00646 | -0.137 | 0.184 | 0.096 | 0.214 | – | – | –
3 | ACGCTATC | -0.0795 | – | – | -0.0999 | -0.00462 | 0.177 | -0.0124 | 0.0307 | – | – | 0.454 | – | –
4 | GCGTAATA | – | – | – | -0.0172 | 0.203 | 0.157 | -0.0868 | 0.189 | – | – | – | – | –
5 | GAGGAAAA | – | 0.033 | 0.0333 | 0.402 | 0.12 | 0.0936 | -0.0849 | 0.0119 | – | -0.00498 | 0.152 | – | –
6 | AACGTAAT | – | 0.266 | 0.286 | 0.114 | 0.359 | 0.108 | 0.00175 | – | – | 0.309 | – | – | –
7 | CGTTTCCC | 0.14 | – | – | 0.422 | 0.179 | 0.0741 | -0.056 | – | 0.108 | – | – | – | –
8 | TGAAGGAA | – | 0.0877 | -0.0181 | 0.469 | 0.0335 | -0.0326 | -0.195 | – | – | – | – | – | –
9 | ACCCCGCC | 0.182 | – | 0.1 | – | 0.0494 | 0.401 | -0.00153 | 0.123 | – | – | – | – | –
10 | AACGTACG | 0.035 | – | 0.212 | -0.011 | 0.308 | 0.176 | -0.0246 | 0.207 | 0.326 | – | – | – | –
11 | CTTGCGTC | -0.0486 | – | – | 0.0218 | 0.0748 | 0.0382 | 0.0999 | – | 0.0507 | – | – | – | –
12 | AACACGCC | – | – | – | 0.00662 | 0.1 | 0.0299 | 0.0102 | – | – | 0.144 | – | – | –
13 | GCAAGAAA | 0.306 | -0.0659 | -0.0125 | 0.229 | 0.12 | 0.0298 | 0.0436 | – | – | – | – | – | –
14 | ATGCCGTA | -0.0495 | 0.395 | 0.36 | 0.0526 | 0.412 | -0.0205 | 0.0492 | – | – | – | 0.41 | – | –
15 | ACCTTTCC | – | -0.0568 | 0.000505 | – | 0.049 | 0.0964 | 0.0425 | 0.0893 | -0.0171 | – | – | – | –
16 | CACGCTTC | 0.0128 | – | 0.109 | -0.00272 | 0.111 | 0.0148 | -0.0401 | – | – | – | 0.437 | – | –
17 | TGAAGAAA | 0.339 | 0.151 | 0.0893 | – | 0.121 | 0.0879 | – | 0.114 | 0.129 | – | – | – | –
18 | AGTCAAAA | -0.079 | 0.0721 | -0.0401 | 0.0351 | 0.104 | 0.0017 | – | 0.034 | – | 0.0468 | – | – | –
19 | ATAACGTA | – | 0.0395 | – | 0.0295 | 0.334 | 0.101 | – | – | – | 0.37 | – | – | –
20 | ACGGAAAC | 0.205 | 0.412 | – | 0.243 | – | 0.0699 | 0.0265 | 0.388 | – | – | – | 0.325 | 0.361
21 | ATTTCCCC | – | – | – | 0.428 | 0.205 | 0.175 | – | – | – | – | – | – | –
22 | ACGGCACT | -0.0559 | – | – | – | – | -0.0428 | -0.0412 | – | – | – | – | 0.331 | 0.453
23 | GTACGTTA | – | – | – | -0.127 | 0.253 | 0.14 | -0.119 | – | – | – | – | – | –
24 | CAAGTCAG | 0.00352 | -0.154 | 0.0212 | -0.0668 | – | 0.0399 | 0.417 | -0.0805 | -0.0845 | -0.0841 | – | -0.0334 | -0.0285
25 | TGAAGTCA | – | 0.0391 | 0.00581 | – | – | 0.0863 | 0.426 | -0.0131 | 0.0448 | – | – | 0.00095 | -0.00323
26 | CCGTCAAA | -0.0814 | – | 0.0316 | 0.0179 | – | 0.15 | 0.409 | -0.00988 | -0.0255 | -0.00763 | -0.00183 | 0.036 | 0.00619
27 | ACACTCCA | 0.00764 | – | -0.0716 | -0.0543 | – | 0.0884 | -0.135 | – | – | 0.226 | – | 0.398 | -0.00441
28 | TAAGTCAA | – | 0.0328 | 0.00781 | 0.000545 | – | 0.104 | 0.483 | – | – | – | – | -0.022 | 0.145
29 | GACGCAAA | -0.0249 | – | 0.233 | 0.0481 | 0.135 | 0.137 | – | 0.0207 | – | – | – | 0.382 | –
30 | ATGTCAAC | 0.0563 | -0.138 | 0.106 | -0.103 | – | 0.0344 | 0.443 | – | – | – | 0.0406 | -0.105 | 0.124
